{"source": "the supplement of paper PMC8728848", "binders": {"B1": {"name": "Epa1-NP-mutant-Y228A (Candida glabrata), Q6VBJ0 (protein)", "chain": "MILNPALFLNKCVCIYTTLILLLLTNGGYATSSNDISLASKDPTTFPLGCSPDITTPKKGLSMELYSYDFRKKGSYPCWDAAYLDPNYPRTGYKSHRLLAKVDGVTGNINFYYHATKGCTPQLGHLPASYNYPKPLTMTNFTMLLYGYFRPKVTGFHTFTISADDLLFVNFGAGNAFDCCRRDSSADHFGNYQAYAIWGSKTAKDELTVHLDAGVYYPIRLFYNNREADGALSFTFKTESNENTVSDFSEYFFSLDDTEEGCPGLISYDSSCASVKTSKIIGIDYHTETPNENLVPITKTIYHLGIPCTGTTTTPLCGSGFYDPLANKCVTINTSSTSSVTKTTSHTTSKEVSFHSSISSQKTLIPKSIPSPYGPIKSQSIPTEMETSSEISSSEYAFSDVISTPSHSPYTKKHSSLNSSSYTSTVIHSLTSYSISQGIFSTSLSEQNITSKSSTDKFSTATSMSNNITQSSIIISQFSTNNENYTTTSMHTSSDKISTETLNNSISTTTSILFSNSSTILKNNTTIISSDKDTHYHPVNPTIVCSTNKTEIICASITQPSISNSNNHWSSSVLKFNSTTVRSTLPSSAGSNETSINVPFSSSTESNTSTSSTSTSNSKMVRSTLPSSAGSNETSISVPFSSSTESNTSTSSTSTSNSKMVRSTLPSSAGSNETSINVPFSSSTESNTSTSSTSTSNSKTVRSTPFSSAGIIMTSLSQRNNKSASSYASSNSKCYNTADSCRKVHSTPSYLLTSSYTSEGVDYDCSLVSTKLKINDTNCVNNKHTTKSCLKTSVTTTIPTLEIKTARKSSSNTIGLHSYPTSSPNKSISSAPIIGYISSFKTIKTASPSYQTSDLTTITTITSLNNPGSTAVENTHESNDKSRKTSSNDISSKHSVIKETKDAVESSNKSHQTNTLKCSSIIIASSSHNSYESLGGTTLTLTLSKVYSPQNNDTLPFLEISEVNPSRTVLPESSKMMQYLTSTEERNKTARNTIATNIVSISTFHFEGEGNAIRMGYTQLLLMLIGIIVMNIGT"}}, "test_in_all_cases": "glycan array binding signal (z-score within array); higher = stronger binding", "conditions_in_all_cases": "glycan notation: IUPAC condensed, linker removed; mutation: Y228A", "key": {"Gal(a1-3)Gal(b1-4)GlcNAc": {"target": "Gal(a1-3)Gal(b1-4)GlcNAc", "outline": "(§1)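 Glycan array data were curated from 3228 arrays in the Consortium for Functional Glycomics database and kept only where the protein sequence was available. Glycan names were converted to IUPAC-condensed notation, and columns mapping to the same glycan were averaged. The binding signal is a within-array Z-score, averaged across arrays of the same protein sequence at different concentrations or buffers and across linkers. Negative Z-scores can be read as non-binding.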"}, "[1]": {"target": "Gal(a1-3)Gal(b1-4)GlcNAc(b1-2)Man", "outline": "as §1"}, "[2]": {"target": "Gal(a1-3)Gal(b1-4)GlcNAc(b1-2)Man(a1-3)[Gal(a1-3)Gal(b1-4)GlcNAc(b1-2)Man(a1-6)]Man(b1-4)GlcNAc(b1-4)GlcNAc", "outline": "as §1"}, "[3]": {"target": "Gal(a1-3)Gal(b1-4)GlcNAc(b1-3)GalNAc", "outline": "as §1"}, "[4]": {"target": "Gal(a1-3)Gal(b1-4)GlcNAc(b1-6)GalNAc", "outline": "as §1"}, "[5]": {"target": "Gal(a1-3)Gal(b1-4)[Fuc(a1-3)]GlcNAc", "outline": "as §1"}, "[6]": {"target": "Gal(a1-3)Gal(b1-4)[Fuc(a1-3)]GlcNAc(b1-2)Man(a1-3)[Gal(a1-3)Gal(b1-4)[Fuc(a1-3)]GlcNAc(b1-2)Man(a1-6)]Man(b1-4)GlcNAc(b1-4)GlcNAc", "outline": "as §1"}, "Gal(a1-3)GalNAc": {"target": "Gal(a1-3)GalNAc", "outline": "as §1"}, "[7]": {"target": "Gal(a1-3)[Gal(a1-4)]Gal(b1-4)GlcNAc", "outline": "as §1"}, "[8]": {"target": "Gal(a1-4)Gal(b1-3)GlcNAc(b1-2)Man(a1-3)[Gal(a1-4)Gal(b1-3)GlcNAc(b1-2)Man(a1-6)]Man(b1-4)GlcNAc(b1-4)GlcNAc", "outline": "as §1"}, "Gal(a1-4)Gal(b1-4)Glc": {"target": "Gal(a1-4)Gal(b1-4)Glc", "outline": "as §1"}, "Gal(a1-4)Gal(b1-4)GlcNAc": {"target": "Gal(a1-4)Gal(b1-4)GlcNAc", "outline": "as §1"}, "[9]": {"target": "Gal(a1-4)Gal(b1-4)GlcNAc(b1-2)Man(a1-3)[Gal(a1-4)Gal(b1-4)GlcNAc(b1-2)Man(a1-6)]Man(b1-4)GlcNAc(b1-4)GlcNAc", "outline": "as §1"}, "[10]": {"target": "Gal(a1-4)Gal(b1-4)GlcNAc(b1-3)Gal(b1-4)Glc", "outline": "as §1"}, "Gal(a1-4)GlcNAc": {"target": "Gal(a1-4)GlcNAc", "outline": "as §1"}, "Gal(a1-6)Glc": {"target": "Gal(a1-6)Glc", "outline": "as §1"}, "Gal(b1-2)Gal": {"target": "Gal(b1-2)Gal", "outline": "as §1"}, "Gal(b1-3)Gal": {"target": "Gal(b1-3)Gal", "outline": "as §1"}, "Gal(b1-3)Gal(b1-4)GlcNAc": {"target": "Gal(b1-3)Gal(b1-4)GlcNAc", "outline": "as §1"}, "Gal(b1-3)GalNAc": {"target": "Gal(b1-3)GalNAc", "outline": "as §1"}, "[11]": {"target": "Gal(b1-3)GalNAc(a1-3)[Fuc(a1-2)]Gal(b1-4)Glc", "outline": "as §1"}, "[12]": {"target": "Gal(b1-3)GalNAc(a1-3)[Fuc(a1-2)]Gal(b1-4)GlcNAc", "outline": "as §1"}, "Gal(b1-3)GalNAc(b1-3)Gal": {"target": "Gal(b1-3)GalNAc(b1-3)Gal", "outline": "as §1"}, "[13]": {"target": "Gal(b1-3)GalNAc(b1-3)Gal(a1-4)Gal(b1-4)Glc", "outline": "as §1"}, "[14]": {"target": "Gal(b1-3)GalNAc(b1-4)Gal(b1-4)Glc", "outline": "as §1"}, "[15]": {"target": "Gal(b1-3)GalNAc(b1-4)[Neu5Ac(a2-3)]Gal(b1-4)Glc", "outline": "as §1"}, "Gal(b1-3)GlcNAc": {"target": "Gal(b1-3)GlcNAc", "outline": "as §1"}, "[16]": {"target": "Gal(b1-3)GlcNAc(a1-3)Gal(b1-4)GlcNAc", "outline": "as §1"}, "[17]": {"target": "Gal(b1-3)GlcNAc(a1-6)Gal(b1-4)GlcNAc", "outline": "as §1"}, "Gal(b1-3)GlcNAc(b1-2)Man": {"target": "Gal(b1-3)GlcNAc(b1-2)Man", "outline": "as §1"}}, "note": "The other results are listed elsewhere or left out.", "data": [{"binder": "B1", "values": [{"measurement": "glycan array binding signal (z-score)", "setting": "Gal(a1-3)Gal(b1-4)GlcNAc", "result": -0.218}, {"measurement": "glycan array binding signal (z-score)", "setting": "[1]", "result": -0.233}, {"measurement": "glycan array binding signal (z-score)", "setting": "[2]", "result": -0.232}, {"measurement": "glycan array binding signal (z-score)", "setting": "[3]", "result": -0.245}, {"measurement": "glycan array binding signal (z-score)", "setting": "[4]", "result": -0.214}, {"measurement": "glycan array binding signal (z-score)", "setting": "[5]", "result": -0.158}, {"measurement": "glycan array binding signal (z-score)", "setting": "[6]", "result": -0.038}, {"measurement": "glycan array binding signal (z-score)", "setting": "Gal(a1-3)GalNAc", "result": -0.151}, {"measurement": "glycan array binding signal (z-score)", "setting": "[7]", "result": -0.262}, {"measurement": "glycan array binding signal (z-score)", "setting": "[8]", "result": 0.117}, {"measurement": "glycan array binding signal (z-score)", "setting": "Gal(a1-4)Gal(b1-4)Glc", "result": -0.242}, {"measurement": "glycan array binding signal (z-score)", "setting": "Gal(a1-4)Gal(b1-4)GlcNAc", "result": 0.017}, {"measurement": "glycan array binding signal (z-score)", "setting": "[9]", "result": 0.054}, {"measurement": "glycan array binding signal (z-score)", "setting": "[10]", "result": 0.014}, {"measurement": "glycan array binding signal (z-score)", "setting": "Gal(a1-4)GlcNAc", "result": 1.7}, {"measurement": "glycan array binding signal (z-score)", "setting": "Gal(a1-6)Glc", "result": -0.147}, {"measurement": "glycan array binding signal (z-score)", "setting": "Gal(b1-2)Gal", "result": -0.062}, {"measurement": "glycan array binding signal (z-score)", "setting": "Gal(b1-3)Gal", "result": 11.6}, {"measurement": "glycan array binding signal (z-score)", "setting": "Gal(b1-3)Gal(b1-4)GlcNAc", "result": 10.2}, {"measurement": "glycan array binding signal (z-score)", "setting": "Gal(b1-3)GalNAc", "result": 0.27}, {"measurement": "glycan array binding signal (z-score)", "setting": "[11]", "result": 0.088}, {"measurement": "glycan array binding signal (z-score)", "setting": "[12]", "result": 0.52}, {"measurement": "glycan array binding signal (z-score)", "setting": "Gal(b1-3)GalNAc(b1-3)Gal", "result": 0.184}, {"measurement": "glycan array binding signal (z-score)", "setting": "[13]", "result": -0.045}, {"measurement": "glycan array binding signal (z-score)", "setting": "[14]", "result": 1.84}, {"measurement": "glycan array binding signal (z-score)", "setting": "[15]", "result": 0.268}, {"measurement": "glycan array binding signal (z-score)", "setting": "Gal(b1-3)GlcNAc", "result": 0.919}, {"measurement": "glycan array binding signal (z-score)", "setting": "[16]", "result": -0.17}, {"measurement": "glycan array binding signal (z-score)", "setting": "[17]", "result": -0.119}, {"measurement": "glycan array binding signal (z-score)", "setting": "Gal(b1-3)GlcNAc(b1-2)Man", "result": 3.19}]}]}
